In US7816326B2, “Sulfur compounds as inhibitors of hepatitis C virus NS3 serine protease” (Schering Corporation, priority 2004, dated 2010) one finds Ki data, which are given here for 38 molecules.

Broadly, the Ki is a dissociation constant, usually derived from enzyme kinetics or from competition with a known ligand.

In this assay the target is Recombinant heterodimeric HCV NS3/NS4A protease (strain 1a) (Hepatitis C virus genotype 1a, UniProt P27958). The assay is described as follows: Spectrophotometric assay for HCV protease inhibitory activity. Type of assay: biochemical.
[1] abbreviates: HCV NS3/NS4A protease, chromogenic ester substrate, 30° C., pH 6.5, read-out: Ki*.
Setting [2] is: HCV serine protease inhibitory activity ranges, read-out: Ki* Range.

Where two headings read alike, the source gives them in different places.

As for `CCCC[C@H](NC(=O)[C@@H]1[C@@H]2[C@H](CN1C(=O)[C@@H](NC(=O)NC1(CS(=O)(=O)N(C)C)CCCCC1)C(C)(C)C)C2(C)C)C(=O)C(=O)NC1CC1` [compound 1200, 3-{2-[3-(1-Dimethylsulfamoylmethyl-cyclohexyl)-ureido]-3,3-dimethyl-butyryl}-6,6-dimethyl-3-aza-bicyclo[3.1.0]hexane-2-carboxylic acid(1-cyclopropylaminooxalyl-pentyl)-amide], the Ki is, setting by setting: under setting [1], 12 nM; under setting [2], under 75 nM.

`CCC[C@H](NC(=O)[C@@H]1[C@@H]2[C@H](CN1C(=O)[C@@H](NC(=O)NC1(CS(=O)(=O)N3CCOCC3)CCCCC1)C(C)(C)C)C2(C)C)C(=O)C(=O)NC1CC1` [compound 1386]: the inhibition constant Ki under setting [2] was under 75 nM.

Turning to `CCC[C@H](NC(=O)[C@@H]1[C@@H]2[C@H](CN1C(=O)[C@@H](NC(=O)NC1([C@H]3CCN(C4CC4)S3(=O)=O)CCCCC1)C(C)(C)C)C2(C)C)C(=O)C(=O)NC1CC1` [compound 1218], the Ki under setting [2] is under 75 nM.

Turning to `CCN(C)S(=O)(=O)CC1(NC(=O)N[C@H](C(=O)N2C[C@H]3[C@@H]([C@H]2C(=O)N[C@@H](CCC2CC2)C(=O)C(=O)NC2CC2)C3(C)C)C(C)(C)C)CCCCC1` [compound 1283], under setting [2], the Ki was under 75 nM.

As for `CCCC[C@H](NC(=O)[C@@H]1[C@@H]2[C@H](CN1C(=O)[C@@H](NC(=O)NC1(CS(=O)(=O)N(C(C)C)C3CC3)CCCCC1)C1(C)CCCCC1)C2(C)C)C(=O)C(=O)NC1CC1` [compound 1375], the Ki under setting [2] was under 75 nM.

Regarding `CCC[C@H](NC(=O)[C@@H]1[C@@H]2[C@H](CN1C(=O)[C@@H](NC(=O)NC1(CS(=O)(=O)N3CCC3)CCCCC1)C1(C)CCCCC1)C2(C)C)C(=O)C(=O)NC1CC1` [compound 1349], the inhibition constant Ki under setting [2] was under 75 nM.

As to `CN(C(C)(C)CF)S(=O)(=O)CC1(NC(=O)N[C@H](C(=O)N2C[C@H]3[C@@H]([C@H]2C(=O)N[C@@H](CC2CC2)C(=O)C(=O)NC2CC2)C3(C)C)C(C)(C)C)CCCCC1` [compound 1367], the Ki under setting [2] was under 75 nM.

Consider `CN(C)S(=O)(=O)CC1(NC(=O)N[C@H](C(=O)N2C[C@H]3[C@@H]([C@H]2C(=O)N[C@@H](CC2CC2)C(=O)C(=O)NC2CC2)C3(C)C)C2(C)CCCCC2)CCCCC1` [compound 1237], for which the Ki under setting [2] was under 75 nM.

As for `CCCC[C@H](NC(=O)[C@@H]1[C@@H]2[C@H](CN1C(=O)[C@@H](NC(=O)NC1(CS(=O)(=O)N3CCOCC3)CCCCC1)C(C)(C)C)C2(C)C)C(=O)C(=O)NC1CC1` [compound 1382], the inhibition constant Ki under setting [2] is under 75 nM.

For `CN(c1ccccn1)S(=O)(=O)CC1(NC(=O)N[C@H](C(=O)N2C[C@H]3[C@@H]([C@H]2C(=O)N[C@H](CC2CC2)C(=O)C(=O)NC2CC2)C3(C)C)C(C)(C)C)CCCCC1` [compound 1396], the Ki under setting [2] was under 75 nM.

Take `CCC[C@H](NC(=O)[C@@H]1[C@@H]2[C@H](CN1C(=O)[C@@H](NC(=O)NC1(CS(=O)(=O)N(C)[C@@H](C)C3CC3)CCCCC1)C(C)(C)C)C2(C)C)C(=O)C(=O)NC1CC1` [compound 1288]: the Ki under setting [2] is under 75 nM.

In the case of `CCCC[C@H](NC(=O)[C@@H]1[C@@H]2[C@H](CN1C(=O)[C@@H](NC(=O)NC1(CS(=O)(=O)NC)CCCCC1)C(C)(C)C)C2(C)C)C(=O)C(=O)NC1CC1` [compound 1245], under setting [2], the Ki is under 75 nM.

On to `CN(C(C)(C)C)S(=O)(=O)CC1(NC(=O)N[C@H](C(=O)N2C[C@H]3[C@@H]([C@H]2C(=O)N[C@@H](CCC2CC2)C(=O)C(=O)NC2CC2)C3(C)C)C2(C)CCCCC2)CCCCC1` [compound 1277], for which the Ki under setting [2] was under 75 nM.

`CCCC[C@H](NC(=O)[C@@H]1[C@@H]2[C@H](CN1C(=O)[C@@H](NC(=O)NC1(CS(=O)(=O)N(C)C)CCCCC1)C1CCCCC1)C2(C)C)C(=O)C(=O)NC1CC1` [compound 1241]: under setting [2], the Ki was under 75 nM.

As to `CCN(C1CC1)S(=O)(=O)CC1(NC(=O)N[C@H](C(=O)N2C[C@H]3[C@@H]([C@H]2C(=O)N[C@@H](CC2CC2)C(=O)C(=O)NC2CC2)C3(C)C)C(C)(C)C)CCCCC1` [compound 1358], the Ki under setting [2] is under 75 nM.

For the molecule `C=CCNC(=O)C(=O)C(CCCC)NC(=O)[C@@H]1[C@@H]2[C@H](CN1C(=O)[C@@H](NC(=O)N[C@H]([C@H]1CCN(C)S1(=O)=O)C(C)(C)C)C1(C)CCCCC1)C2(C)C` (stereo partly shown) [compound 1225], the Ki under setting [2] is over 250 nM.

For `CCC[C@H](NC(=O)[C@@H]1[C@@H]2[C@H](CN1C(=O)[C@@H](NC(=O)NC1(CS(=O)(=O)N(C)C)CCCCC1)C1CCCCC1)C2(C)C)C(=O)C(=O)NC1CC1` [compound 1243], the Ki under setting [2] was under 75 nM.

As to `CCCC[C@H](NC(=O)[C@@H]1[C@@H]2[C@H](CN1C(=O)[C@@H](NC(=O)NC1(CS(=O)(=O)N3CCCC3)CCCCC1)C(C)(C)C)C2(C)C)C(=O)C(=O)NC1CC1` [compound 1210], the Ki under setting [2] was under 75 nM.

For `CN(C(C)(C)C1CC1)S(=O)(=O)CC1(NC(=O)N[C@H](C(=O)N2C[C@H]3[C@@H]([C@H]2C(=O)N[C@@H](CC2CC2)C(=O)C(=O)NC2CC2)C3(C)C)C(C)(C)C)CCCCC1` [compound 1310], under setting [2], the inhibition constant (Ki) is under 75 nM.

Take `C[C@H](C1CC1)N(C)S(=O)(=O)CC1(NC(=O)N[C@H](C(=O)N2C[C@H]3[C@@H]([C@H]2C(=O)N[C@@H](CC2CC2)C(=O)C(=O)NC2CC2)C3(C)C)C(C)(C)C)CCCCC1` [compound 1297]: the Ki under setting [2] was under 75 nM.

As for `CC1([C@H](NC(=O)NC2(CS(=O)(=O)N(CC3CC3)C3CC3)CCCCC2)C(=O)N2C[C@H]3[C@@H]([C@H]2C(=O)N[C@@H](CC2CC2)C(=O)C(=O)NC2CC2)C3(C)C)CCCCC1` [compound 1378], the inhibition constant (Ki) under setting [2] is under 75 nM.

Consider `CCCC[C@H](NC(=O)[C@@H]1[C@@H]2[C@H](CN1C(=O)[C@@H](NC(=O)NC1(CS(=O)(=O)N(C)C3CC3)CCCCC1)C(C)(C)C)C2(C)C)C(=O)C(=O)NC1CC1` [compound 1261, 3-[2-(3-{1-[(Cyclopropyl-methyl-sulfamoyl)-methyl]-cyclohexyl}-ureido)-3,3-dimethyl-butyryl]-6,6-dimethyl-3-aza-bicyclo[3.1.0]hexane-2-carboxylic acid (1-cyclopropylaminooxalyl-pentyl)-amide], for which the Ki is, setting by setting: under setting [1], 11 nM; under setting [2], under 75 nM.

`CCN1CC[C@@H](C2(NC(=O)N[C@H](C(=O)N3C[C@H]4[C@@H]([C@H]3C(=O)N[C@@H](CCC3CC3)C(=O)C(=O)NC3CC3)C4(C)C)C(C)(C)C)CCCCC2)S1(=O)=O` [compound 1208]: under setting [2], the Ki is under 75 nM.

Consider `CCCC[C@H](NC(=O)[C@@H]1[C@@H]2[C@H](CN1C(=O)[C@@H](NC(=O)NC1([C@H](C)S(=O)(=O)N(C)C)CCCCC1)C(C)(C)C)C2(C)C)C(=O)C(=O)NC1CC1` [compound 1401], for which, under setting [2], the Ki is under 75 nM.

As to `CCC[C@H](NC(=O)[C@@H]1[C@@H]2[C@H](CN1C(=O)[C@@H](NC(=O)NC1([C@@H](C)S(=O)(=O)N(C)C)CCCCC1)C1(C)CCCCC1)C2(C)C)C(=O)C(=O)NC1CC1` [compound 1409], the Ki under setting [2] was under 75 nM.

As for `CN(CC(F)(F)F)S(=O)(=O)CC1(NC(=O)N[C@H](C(=O)N2C[C@H]3[C@@H]([C@H]2C(=O)N[C@@H](CCC2CC2)C(=O)C(=O)NC2CC2)C3(C)C)C(C)(C)C)CCCCC1` [compound 1312], the Ki under setting [2] is under 75 nM.

As for `CCN(CC)S(=O)(=O)CC1(NC(=O)N[C@H](C(=O)N2C[C@H]3[C@@H]([C@H]2C(=O)N[C@@H](CC2CC2)C(=O)C(=O)NC2CC2)C3(C)C)C2(C)CCCCC2)CCCCC1` [compound 1267], the Ki under setting [2] was under 75 nM.

As for `CCC[C@H](NC(=O)[C@@H]1[C@@H]2[C@H](CN1C(=O)[C@@H](NC(=O)NC1([C@H](C)S(=O)(=O)N(C)C)CCCCC1)C(C)(C)C)C2(C)C)C(=O)C(=O)NC1CC1` [compound 1403], under setting [2], the Ki is under 75 nM.

`CCCC[C@H](NC(=O)[C@@H]1[C@@H]2[C@H](CN1C(=O)[C@@H](NC(=O)NC1(CS(=O)(=O)N(CC)CC)CCCCC1)C(C)(C)C)C2(C)C)C(=O)C(=O)NC1CC1` [compound 1256]: the Ki under setting [2] is under 75 nM.

As to `CC1([C@H](NC(=O)NC2(CS(=O)(=O)N3CCC3)CCCCC2)C(=O)N2C[C@H]3[C@@H]([C@H]2C(=O)N[C@@H](CC2CC2)C(=O)C(=O)NC2CC2)C3(C)C)CCCCC1` [compound 1350], the Ki under setting [2] was under 75 nM.

As for `C[C@@H](C1(NC(=O)N[C@H](C(=O)N2C[C@H]3[C@@H]([C@H]2C(=O)N[C@@H](CCC2CC2)C(=O)C(=O)NC2CC2)C3(C)C)C(C)(C)C)CCCCC1)S(=O)(=O)N(C)C1CC1` [compound 1420], under setting [2], the Ki was under 75 nM.

Regarding `CCC[C@H](NC(=O)[C@@H]1[C@@H]2[C@H](CN1C(=O)[C@@H](NC(=O)NC1(CS(=O)(=O)N(C)c3ccccn3)CCCCC1)C(C)(C)C)C2(C)C)C(=O)C(=O)NC1CC1` [compound 1392], the inhibitory constant (Ki) under setting [2] is under 75 nM.

For `CCCC[C@H](NC(=O)[C@@H]1[C@@H]2[C@H](CN1C(=O)[C@@H](NC(=O)NC1(CS(=O)(=O)N(C(C)C)C(C)C)CCCCC1)C1(C)CCCCC1)C2(C)C)C(=O)C(=O)NC1CC1` [compound 1353], under setting [2], the Ki was under 75 nM.

With `C#CCC[C@H](NC(=O)[C@@H]1[C@@H]2[C@H](CN1C(=O)[C@@H](NC(=O)NC1(CS(=O)(=O)N(C)C)CCCCC1)C1(C)CCCCC1)C2(C)C)C(=O)C(=O)NC1CC1` [compound 1239], the Ki under setting [2] was under 75 nM.

Consider `CC(C)N(C(C)C)S(=O)(=O)CC1(NC(=O)N[C@H](C(=O)N2C[C@H]3[C@@H]([C@H]2C(=O)N[C@@H](CCC2CC2)C(=O)C(=O)NC2CC2)C3(C)C)C2(C)CCCCC2)CCCCC1` [compound 1354], for which the Ki under setting [2] is under 75 nM.

Take `CC(C)(C)[C@H](NC(=O)NC1(CS(=O)(=O)N2CCCCC2)CCCCC1)C(=O)N1C[C@H]2[C@@H]([C@H]1C(=O)N[C@@H](CCC1CC1)C(=O)C(=O)NC1CC1)C2(C)C` [compound 1220]: the Ki under setting [2] is under 75 nM.

Take `CCCC[C@H](NC(=O)[C@@H]1[C@@H]2[C@H](CN1C(=O)[C@@H](NC(=O)NC1(CS(=O)(=O)N(C(C)C)C(C)C)CCCCC1)C(C)(C)C)C2(C)C)C(=O)C(=O)NC1CC1` [compound 1343]: the Ki under setting [2] was under 75 nM.

As for `CCC[C@@H](NC(=O)[C@@H]1[C@@H]2[C@H](CN1C(=O)[C@@H](NC(=O)NC1(CS(=O)(=O)N(C)c3ccccn3)CCCCC1)C(C)(C)C)C2(C)C)C(=O)C(=O)NC1CC1` [compound 1393], the Ki under setting [2] was under 75 nM.
